Laboratory results as given in a collection of fitness landscapes (doi:10.1126/science.1257360).
Some of the results follow.

B1: PhoQ; a variant is named by its letters at X, in order, P23837 (parent)
chain: MKKLLRLFFPLSLRVRFLLATAAVVLVLSLAYGMVALIGYSVSFDKTTFRLLRGESNLFYTLAKWENNKLHVELPENIDKQSPTMTLIYDENGQLLWAQRDVPWLMKMIQPDWLKSNGFHEIEADVNDTSLLLSGDHSIQQQLQEVREDDDDAEMTHSVAVNVYPATSRMPKLTIVVVDTIPVELKSSYMVWSWFIYVLSANLLLVIPLLWVAAWWSLRPIEALAKEVRELEEHNRELLNPATTRELTSLVRNLNRLLKSERERYDKYRTTLTDLTHSLKTPLXXLQXXLRSLRSEKMSVSDAEPVMLEQISRISQQIGYYLHRASMRGGTLLSRELHPVAPLLDNLTSALNKVYQRKGVNISLDISPEISFVGEQNDFVEVMGNVLDNACKYCLEFVEISARQTDEHLYIVVEDDGPGIPLSKREVIFDRGQRVDTLRPGQGVGLAVAREITEQYEGKIVAGESMLGGARMEVIFGRQHSAPKDE

Variants of: B1
Experiment: enrichment ratio after two sorts for PhoP signalling (ratio (wild type AVST 3.29)); higher = more functional
Settings: with PhoP (E. coli)

Variant	enrichment ratio
PWHD	≤ 0.25
VKAM	≤ 0.25
LLLR	≤ 0.25
FNMN	≤ 0.25
YQYK	≤ 0.25
TWQP	≤ 0.25
YAHC	≤ 0.25
YQFM	≤ 0.25
GSVH	≤ 0.25
HLIC	≤ 0.25
GSRF	0.652
LTGF	≤ 0.25
DTQQ	≤ 0.25
IEIN	≤ 0.25
PHRC	≤ 0.25
LHDK	≤ 0.25
MTFQ	4.54
IRPN	≤ 0.25
WDVG	≤ 0.25
MNVC	≤ 0.25
STRT	≤ 0.25
EMMM	≤ 0.25
AISF	13.4
TRLN	4.05

Variant	enrichment ratio
RPYW	≤ 0.25
AEGN	12.2
TEND	23.1
QGSA	4.04
IEFF	≤ 0.25
VGAN	≤ 0.25
LTRL	≤ 0.25
VILT	≤ 0.25
YSNC	≤ 0.25
ASTM	12.3
DRCH	≤ 0.25
DKYV	≤ 0.25
VNDG	≤ 0.25
WLNK	≤ 0.25
DSLY	≤ 0.25
SLRS	≤ 0.25
TCFM	≤ 0.25
DIHA	≤ 0.25
KLMH	1.9
LRTQ	≤ 0.25
NHNC	≤ 0.25
RIID	≤ 0.25
QIDD	≤ 0.25
SYMM	0.307

Variant	enrichment ratio
VIAF	≤ 0.25
MSLA	5.33
HDTM	≤ 0.25
PGNN	≤ 0.25
KMGT	≤ 0.25
KDTM	≤ 0.25
DDCP	≤ 0.25
SRVG	≤ 0.25
RCLE	≤ 0.25
MPTG	≤ 0.25
PRFA	≤ 0.25
QTHR	≤ 0.25
SFYW	≤ 0.25
MMDV	≤ 0.25
QRTG	≤ 0.25
DVWH	≤ 0.25
PHAM	≤ 0.25
FWMP	≤ 0.25
FGKP	≤ 0.25
APAV	≤ 0.25
LMRW	≤ 0.25
HNSI	≤ 0.25
WTWD	≤ 0.25
HDNP	≤ 0.25

Variant	enrichment ratio
CDLS	≤ 0.25
QQAH	≤ 0.25
EMPA	≤ 0.25
ASGK	≤ 0.25
AMRT	≤ 0.25
MYHA	≤ 0.25
TLEW	≤ 0.25
PKVW	≤ 0.25
VHTQ	≤ 0.25
WQHH	≤ 0.25
FETS	≤ 0.25
VWEK	≤ 0.25
SKYY	≤ 0.25
HARK	≤ 0.25
FFLI	≤ 0.25
HTCI	≤ 0.25
EFFR	≤ 0.25
HFAH	≤ 0.25
MEDN	≤ 0.25
VCCQ	≤ 0.25
RERD	≤ 0.25
GHTD	≤ 0.25
PRCV	≤ 0.25
DFFR	≤ 0.25

Variant	enrichment ratio
YSEM	≤ 0.25
PSHD	2.1
PVRY	≤ 0.25
VFYC	≤ 0.25
VVSL	≤ 0.25
PNMI	≤ 0.25
VQSD	≤ 0.25
YCWR	≤ 0.25
LEHY	≤ 0.25
SNAG	6.91
DNTK	≤ 0.25
DHCV	≤ 0.25
IDWF	≤ 0.25
GNTP	≤ 0.25
QATT	≤ 0.25
PIHI	≤ 0.25
ICGI	≤ 0.25
GNQC	≤ 0.25
KHKC	≤ 0.25
TWNM	≤ 0.25
DWMA	≤ 0.25
GIGV	≤ 0.25
GERS	≤ 0.25
TWKV	≤ 0.25

Variant	enrichment ratio
NCGN	≤ 0.25
NCIL	≤ 0.25
HNWM	≤ 0.25
FSCN	≤ 0.25
YRDI	≤ 0.25
SAQN	≤ 0.25
SYTP	≤ 0.25
WPWC	≤ 0.25
PYCH	≤ 0.25
SPIL	≤ 0.25
PTIG	≤ 0.25
MRYP	≤ 0.25
RQLQ	≤ 0.25
LSYA	≤ 0.25
VWGY	≤ 0.25
MNDD	≤ 0.25
GRWI	≤ 0.25
IRWP	≤ 0.25
PVAM	≤ 0.25
NRCE	≤ 0.25
QGFK	≤ 0.25
TVRN	≤ 0.25
LIFD	≤ 0.25
HQEN	≤ 0.25

Variant	enrichment ratio
WILR	≤ 0.25
PCVN	≤ 0.25
TPFC	≤ 0.25
CYLT	≤ 0.25
WQGT	≤ 0.25
FHAE	≤ 0.25
QFAV	≤ 0.25
WDWA	≤ 0.25
DMCI	1.54
FYGE	≤ 0.25
KGYA	≤ 0.25
SAYC	≤ 0.25
MSFQ	7.78
HRRL	≤ 0.25
RGNC	≤ 0.25
YEYF	0.947
QCFV	≤ 0.25
TPEK	≤ 0.25
LWTW	≤ 0.25
RCDN	≤ 0.25
HHQI	≤ 0.25
LNRV	≤ 0.25
PIPR	≤ 0.25
MAWQ	≤ 0.25

Variant	enrichment ratio
FYLA	≤ 0.25
KIDN	≤ 0.25
NITW	≤ 0.25
WRTV	≤ 0.25
AMGQ	13.7
HEGI	≤ 0.25
NNYR	≤ 0.25
ARQK	≤ 0.25
PCYQ	≤ 0.25
DRYR	≤ 0.25
TQVM	1.97
INSL	0.38
NNRW	≤ 0.25
DYCN	≤ 0.25
NQAF	≤ 0.25
VNHL	≤ 0.25
HGNV	≤ 0.25
SYRW	≤ 0.25
KFRW	≤ 0.25
YIRI	≤ 0.25
IEHD	≤ 0.25
LLCF	≤ 0.25
GHHI	≤ 0.25
HFTM	≤ 0.25

Variant	enrichment ratio
MLRL	≤ 0.25
KPYV	≤ 0.25
DMKN	≤ 0.25
RDLW	≤ 0.25
EQIK	≤ 0.25
NGFF	≤ 0.25
IPGM	≤ 0.25
MYEH	≤ 0.25
RAPA	≤ 0.25
VEPR	≤ 0.25
GRFM	≤ 0.25
QAPQ	≤ 0.25
TQLL	18.9
YIFW	≤ 0.25
TNFN	≤ 0.25
WRCF	≤ 0.25
ILAA	≤ 0.25
MPYD	≤ 0.25
LMES	≤ 0.25
IGNF	≤ 0.25
TIYV	16.6
NCLM	0.542
HWEF	≤ 0.25
EWLP	≤ 0.25

Variant	enrichment ratio
NQNK	≤ 0.25
FNMA	≤ 0.25
DGRF	≤ 0.25
TSWI	3.63
RPSD	≤ 0.25
MMAN	3.04
EQVF	≤ 0.25
ICEM	≤ 0.25
IAGD	≤ 0.25
NQQV	≤ 0.25
DDIW	≤ 0.25
VPRE	≤ 0.25
VCTR	≤ 0.25
QMNV	≤ 0.25
RSVP	≤ 0.25
YKIR	≤ 0.25
MGPQ	≤ 0.25
IPAC	≤ 0.25
SSSK	≤ 0.25
WMMK	≤ 0.25
MAPV	≤ 0.25
YDPG	≤ 0.25
KFQT	≤ 0.25
MNNW	≤ 0.25

Variant	enrichment ratio
MCMS	≤ 0.25
SEWL	3.45
LRPA	≤ 0.25
DNEY	≤ 0.25
QPMG	≤ 0.25
RARA	≤ 0.25
ALTV	5.78
TSID	≤ 0.25
PNRC	≤ 0.25
QWLL	≤ 0.25
LRKI	≤ 0.25
YRFM	≤ 0.25
FRVN	≤ 0.25
ASSQ	14.5
GDRV	≤ 0.25
ETLH	≤ 0.25
ANWL	≤ 0.25
AHQC	≤ 0.25
KACY	≤ 0.25
YNMI	0.268
GYKV	≤ 0.25
VHYQ	≤ 0.25
RVFN	≤ 0.25
HYED	≤ 0.25

Variant	enrichment ratio
TMPT	≤ 0.25
RVKV	≤ 0.25
PCDK	≤ 0.25
MPDA	≤ 0.25
KMRT	≤ 0.25
FPHI	≤ 0.25
HCQP	≤ 0.25
KMDT	≤ 0.25
ARNQ	≤ 0.25
EDVW	≤ 0.25
PNLD	≤ 0.25
AWIS	≤ 0.25
QIWP	≤ 0.25
CLGP	≤ 0.25
TMFG	1.38
WSKI	≤ 0.25
LWVP	≤ 0.25
NVYF	≤ 0.25
RYEA	≤ 0.25
RPVV	≤ 0.25
HPWL	≤ 0.25
LIQW	≤ 0.25
MFMM	≤ 0.25
VAHV	≤ 0.25

Variant	enrichment ratio
EHYQ	≤ 0.25
AMLW	≤ 0.25
WLFK	≤ 0.25
WQTK	≤ 0.25
AIME	1.65
HYYP	≤ 0.25
GNSP	≤ 0.25
FSPY	≤ 0.25
LWSK	≤ 0.25
VRRD	≤ 0.25
QQGS	6.17
YETK	≤ 0.25
HFQD	≤ 0.25
IYLH	≤ 0.25
WNKH	≤ 0.25
WFFI	≤ 0.25
WMPA	≤ 0.25
QAIK	≤ 0.25
